Assay results reported in patent publication US20090274692A1 (TRUBION PHARMACEUTICALS, published 2009).

Key:
CD37 [1] = target: T1, CD37 (human, UniProt P11049 1-281); assay: FMAT competition with labelled CAS-006 on Ramos cells (Example 4)
T1 construct: whole, on cells; also called human CD37; CD37 receptor
T1 sequence (looked up): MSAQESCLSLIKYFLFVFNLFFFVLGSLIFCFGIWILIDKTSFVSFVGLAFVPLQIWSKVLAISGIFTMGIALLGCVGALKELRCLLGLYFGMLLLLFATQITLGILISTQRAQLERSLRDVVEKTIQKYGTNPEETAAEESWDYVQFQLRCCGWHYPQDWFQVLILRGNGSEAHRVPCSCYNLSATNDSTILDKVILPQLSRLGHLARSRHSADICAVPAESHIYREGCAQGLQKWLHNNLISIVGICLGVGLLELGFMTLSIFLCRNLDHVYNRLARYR

CD37 [2] = target: T1, CD37; assay: FMAT competition with labelled CAS-006 on Ramos cells (FIG. 4)

fold greater affinity than the humanized VLVH anti-CD37 SMIP molecules (CD37 [1]): ≤ 4 fold
B1: CAS-024 [G28-1 VH (M99F, Y102S)-VL (T25A) scFv (SSC-P) H WCH2 WCH3] (Fc fusion)
chain: EVQLVQSGAEVKKPGESLKISCKGSGYSFTGYNMNWVRQMPGKGLEWMGNIDPYYGGTTYNRKFKGQVTISADKSISTAYLQWSSLKASDTAMYYCARSVGPFDSWGQGTLVTVSSGGGGSGGGGSGGGGSGGGGSGGGGSEIVLTQSPATLSLSPGERATLSCRASENVYSYLAWYQQKPGQAPRLLIYFAKTLAEGIPARFSGSGSGTDFTLTISSLEPEDFAVYYCQHHSDNPWTFGQGTKVEIKGDQ[sequence of human IgG1 Fc with changes omitted]
notes: Humanized VH-(G4S)5-VL scFv, SSC-P IgG1 hinge, IgG1 CH2CH3; 483 amino acids; also called CAS-024 (hVHhVL)

binding result (CD37 [1]): binds
B2: CAS-001 (Fc fusion)
chain: EIVLTQSPATLSLSPGERATLSCRTSENVYSYLAWYQQKPGQAPRLLIYFAKTLAEGIPARFSGSGSGTDFTLTISSLEPEDFAVYYCQHHSDNPWTFGQGTKVEIKGGGGSGGGGSGGGGTGEVQLVQSGAEVKKPGESLKISCKGSGYSFTGYNMNWVRQMPGKGLEWMGNIDPYYGGTTYNRKFKGQVTISADKSISTAYLQWSSLKASDTAMYYCARSVGPMDYWGRGTLVTVSSDQ[sequence of human IgG1 Fc with changes omitted]
notes: also called Vk3: VH5-51

binding result (CD37 [2]): binds
B3: CAS-003 (Fc fusion)
chain: EIVLTQSPATLSLSPGERATLSCRASENVYSYLAWYQQKPGQAPRLLIYFAKTLAEGIPARFSGSGSGTDFTLTISSLEPEDFAVYYCQHHSDNPWTFGQGTKVEIKGGGGSGGGGSGGGGTGEVQLVQSGAEVKKPGESLKISCKGSGYSFTGYNMNWVRQMPGKGLEWMGNIDPYYGGTTYNRKFKGQVTISADKSISTAYLQWSSLKASDTAMYYCARSVGPFDSWGQGTLVTVSSDQ[sequence of human IgG1 Fc with changes omitted]
notes: also called CAS-003 (hVLhVH); Vk3: VH5 JH5a CDRL1 (T25A)

One block for each binder: values may come before it.
